Data published in PubChem BioAssay AID1466 (National Center for Advancing Translational Sciences (NCATS), 2008).
Among all 200,000 compounds or so, about 10 (0.005%) were called active. The inconclusive results got no clear call from the source; some entries with a clear call stand among them for comparison. Calls follow the shape of the dose curve; as a rule, active = well fitted inhibition curve with a large enough effect; inconclusive = small, poorly fitted or top-dose-only effect, or effect the other way, or another doubt; inactive = no such curve, though single readings can be large or run the other way. No potency is given beside an inconclusive call; the fits are too rough.

target: Lysosomal alpha-glucosidase (Homo sapiens) (UniProt P10253); assay: qHTS Assay for Inhibitors of Human alpha-Glucosidase as a Potential Chaperone Treatment of Pompe Disease; details: purified human GAA, 4-MU-alpha-glucoside fluorescence; activity change, negative = inhibition: at 76.9 µM (top of the series) unless noted;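 as to activity change, negative = inhibition: plate controls were uninhibited enzyme wells for no effect and no-enzyme background for full effect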
Summary of the method: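 Human enzyme at 4 nM with 400 uM 4-methylumbelliferyl-alpha-D-pyranoside, citrate/phosphate buffer pH 5.0, 0.005% Tween-20, 20 min at room temperature. Compounds up to 77 uM. 4-MU fluorescence (Ex 365/Em 440) read after NaOH/glycine stop; AC50 from Hill fit.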
Potency is read from the fitted curve at half-maximal effect; tags tell the direction and shape of the fitted curve.

Compound	Potency	activity change, negative = inhibition
O=C(Cc1ccccc1)NCc1ccncc1	inconclusive [inhibitor, single point]	–
CCC(=O)N1CCc2cc(Br)cc(S(=O)(=O)NCC3CCCO3)c21 (stereo not given)	–	inconclusive: -16.2% [inhibitor]
CCn1cc(C(=O)NCc2ccccc2)c(=O)c2cc(F)c(N3CCN(C(=O)c4ccco4)CC3)cc21	inconclusive [inhibitor, partial curve]	–
CCOCC(=O)Nc1ccc(-c2cn3cccnc3n2)cc1	inconclusive [activator, partial curve]	–
CCC1(CC)Cc2ccccc2-c2nc(NCCO)[nH]c(=O)c21	inconclusive [activator, partial curve]	–
CC(=O)c1c(N2CCOCC2)[nH]c(-c2ccccc2)nc1=S	inconclusive [inhibitor, single point]	–
CCCc1nc(-c2cc3ccc(C)cc3[nH]c2=O)no1	inconclusive [activator, single point]	–
COc1cccc(-n2c([S-])c(C(=O)Nc3ccc(S(=O)(=O)N4CCOCC4)cc3)[n+]3cc(C(N)=O)ccc23)c1	inconclusive [inhibitor, single point]	–
CCC1(C)Cc2ccccc2-c2nc(NCCO)n(-c3ccccc3)c(=O)c21 (stereo not given)	inconclusive [activator, single point]	–
CC1=NN(C(N)=S)C(=O)C1N=Nc1ccccc1C (stereo not given)	inconclusive [inhibitor, single point]	–
COc1ccccc1NS(=O)(=O)c1ccc2oc(SCc3ccc(F)cc3)nc2c1	inconclusive [inhibitor, single point]	–
Cc1csc2ncc(C(=O)NCc3ccccn3)c(=O)n12	inconclusive [activator, single point]	–
CC1=NN(c2nc(-c3ccc(Cl)cc3)cs2)C(=O)C1	inconclusive [inhibitor, single point]	–
O=C1CC(CCC(=O)NC2CC2)c2ccccc2N1 (stereo not given)	–	inconclusive: 16.3% [activator]
CC(C)(C)CC(C)(C)NC(=O)CSCC(=O)Nc1ccc2ccccc2c1	–	inconclusive: -15.4% [inhibitor]
COc1cc(/C=N/Nc2nc(Nc3ccc(C)cc3)nc(-n3nc(C)cc3C)n2)cc(OC)c1OC	inconclusive [inhibitor, single point]	–
COc1ccc(C(=O)Oc2cccnc2)cc1OC	inconclusive [inhibitor, single point]	–
COc1ccc2cc3cc(C(=O)NCc4ccc5c(c4)OCO5)oc3nc2c1	inconclusive [activator, single point]	–
O=C(CN1CCN(CC(=O)Nc2ccccc2Cl)CC1)Nc1ccc2c(c1)OCCO2	–	inconclusive: 18.2% [activator]
COC(=O)c1sccc1NC(=O)C1CCCCC1C(=O)O (stereo not given)	–	inconclusive: -15.1% [inhibitor]

Compound	Potency	activity change, negative = inhibition
CCOc1ccc(C(CC(=O)O)NC(=O)c2cccs2)cc1 (stereo not given)	inconclusive [inhibitor, full curve, poor fit]	–
COc1cccc(-n2c(SCC(=O)NC3CCCCC3)nc3n[nH]c(C)c3c2=N)c1	inconclusive [inhibitor, single point]	–
COc1cc2cc(CN(Cc3nnnn3Cc3ccccc3)CC3CCCO3)c(=O)[nH]c2cc1OC (stereo not given)	inconclusive [activator, partial curve]	–
O=C(Nc1ccccc1)c1ccc(-c2ccccc2C(F)(F)F)o1	inconclusive [inhibitor, full curve, poor fit]	–
CCCCCCOC(=O)C(C#N)c1nc2ccccc2nc1N1CCN(C)CC1 (stereo not given)	inconclusive [inhibitor, full curve, poor fit]	–
COc1ccc(CCN(CC(=O)NC(C)(C)C)C(=O)Cn2nnc(-c3ccc(C)o3)n2)cc1OC	inconclusive [inhibitor, partial curve]	–
c1ccc2c(c1)OCC(CNc1ncnc3nc[nH]c13)O2 (stereo not given)	inconclusive [inhibitor, partial curve]	–
Cc1cc(N2CCN(S(=O)(=O)c3ccc(Br)cc3)CC2)n2ncnc2n1	–	inconclusive: 16% [activator]
O=C(NC(=S)Nc1ccc(S(=O)(=O)N2CCCC2)cc1)C1CCC1	inconclusive [inhibitor, single point]	–
Cc1cccc(OC2CCN(Cc3c(C(=O)N4CCCC4)nc4ccccn34)CC2)c1	–	inconclusive: 11.5% [activator]
CC(=O)NC(CCS(C)(=O)=O)C(=O)Nc1nc(C)cs1 (stereo not given)	inconclusive [inhibitor, single point]	–
N#C/C(=C(/O)CCCl)c1ccccn1	inconclusive [activator, partial curve]	–
COC(=O)C1C(=O)C2=C(CC1C)NC(C)=C(C(=O)OC1CCCC1)C2c1ccc(N(C)C)cc1 (stereo not given)	inconclusive [inhibitor, single point]	–
COC(=O)Cn1cc(C(=O)OC)c2ccccc21	inconclusive [inhibitor, single point]	–
COc1nc(-c2ccccc2)ccc1-c1noc(C)n1	inconclusive [inhibitor, single point]	–
C/C(CCc1ccccc1)=N\NC(=O)c1ccc(CN2CCOCC2)cc1	inconclusive [inhibitor, single point]	–
CCOC(=O)Cc1c(C)[nH]c(=S)[nH]c1=O	inactive	–
N/C(=N\S(=O)(=O)c1cc(C(F)(F)F)cc(C(F)(F)F)c1)c1ccc(Cl)cc1	inconclusive [inhibitor, single point]	–
COc1ccccc1C1CN(c2ccc(F)cc2F)N=C1c1cccs1 (stereo not given)	inconclusive [activator, partial curve]	–
CCCCN(CCCC)S(=O)(=O)c1ccc(SCC(=O)OCC)c([N+](=O)[O-])c1	–	inconclusive: -15.2% [inhibitor]
